# The campaign covered roughly 230,000 compounds. About 3,600 (1.6%) were called active. Inconclusive results, whose numbers are uncertain, are shown with a selection of clear calls. Calls come from the whole dose curve; as a rule, active = well fitted inhibition curve with a large enough effect (not every such curve was filed as active); inconclusive = small, poorly fitted or top-dose-only effect, or another doubt; inactive = no such curve, though single readings can be large or run the other way. Where the call is inconclusive, the potency comes from a doubtful curve fit.
# Molecular target: Lysine-specific demethylase 4E (Homo sapiens) (UniProt B2RXH2)
# UniProt B2RXH2, sequence (B2RXH2 whole entry, looked up, the tested form may be a part): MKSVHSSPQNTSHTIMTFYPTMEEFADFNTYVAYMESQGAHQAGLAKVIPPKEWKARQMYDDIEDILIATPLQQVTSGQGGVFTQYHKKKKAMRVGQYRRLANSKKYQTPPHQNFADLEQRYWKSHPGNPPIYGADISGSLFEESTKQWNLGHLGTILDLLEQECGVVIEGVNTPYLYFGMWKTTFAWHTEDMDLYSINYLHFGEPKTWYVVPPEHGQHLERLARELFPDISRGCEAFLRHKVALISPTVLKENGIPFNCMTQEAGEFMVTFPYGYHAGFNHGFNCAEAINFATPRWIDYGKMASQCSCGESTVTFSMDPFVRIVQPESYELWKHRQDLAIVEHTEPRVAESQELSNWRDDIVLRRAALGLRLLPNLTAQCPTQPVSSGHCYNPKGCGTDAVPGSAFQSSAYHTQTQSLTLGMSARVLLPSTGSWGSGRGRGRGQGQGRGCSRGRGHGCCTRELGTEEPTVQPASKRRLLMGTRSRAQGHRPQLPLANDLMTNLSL
# Assay: qHTS Assay for Inhibitors of Human Jumonji Domain Containing 2E (JMJD2E)
# Details: JMJD2E catalytic domain, FDH-coupled NADH fluorescence (FDH is formaldehyde dehydrogenase); series mostly up to 57.1 µM
# Note: nearly all actives have a fitted effect of over 50% in size.
# Potency is the fitted concentration of half-maximal effect; tags give direction and shape of the fitted curve.
row,Compound,Potency
1,O=C(c1ccc2c(=O)n(C3CCCC3)c(=S)[nH]c2c1)N1CCCCCC1,inactive
2,O=C(N/N=C(\c1ccccc1)c1ccccn1)c1cccc([N+](=O)[O-])c1,inactive
3,C=CCOC(=O)c1c(C)nc2cc3c(cc2c1C)OCO3,"inconclusive: 11.2 µM [inhibitor, partial curve]"
4,CCc1ccc(CN2CCCC(CCC(=O)N3CCN(c4ccccn4)CC3)C2)o1 (configuration not stated),"inconclusive: 35.5 µM [inhibitor, single point]"
5,O=c1nc(Nc2cccc(Cl)c2)oc2cc(Cl)oc(=O)c12,inactive
6,COc1ccc(-c2c(C)oc3c(CN4CCCCC4C)c(O)ccc3c2=O)cc1OC (configuration not stated),"inconclusive: 25.1 µM [inhibitor, partial curve]"
7,Cc1sc2nc(C(C)Sc3n[nH]c(N)n3)[nH]c(=O)c2c1C (configuration not stated),"inconclusive: 28.2 µM [inhibitor, single point]"
8,Cc1[nH]nc2c1C(c1ccc(F)cc1)C1=C(CC(C)(C)CC1=O)N2 (configuration not stated),"inconclusive: 25.1 µM [inhibitor, partial curve]"
9,COc1ccc(CN2C(=O)C3C4C=CC(C4)C3C2=O)cc1 (configuration not stated),inactive
10,Cc1ccc(OCCCn2ccnc2)c([N+](=O)[O-])c1,"inconclusive: 35.5 µM [inhibitor, single point]"
11,Nc1ccc2[nH]ncc2c1,"inconclusive: 14.1 µM [inhibitor, partial curve]"
12,C=CCN(c1ccccc1OC)S(=O)(=O)c1cccc(C(=O)OCC(=O)c2c[nH]c3ccccc23)c1,inactive
13,CN(Cc1ccccc1)S(=O)(=O)c1ccc(C(=O)Nc2nnc(C3CC3)o2)cc1,"inconclusive: 39.8 µM [inhibitor, single point]"
14,COc1ccccc1-n1c(SCC(=O)NCc2ccc3c(c2)OCO3)nc2cc([N+](=O)[O-])ccc21,"inconclusive: 3.16 µM [inhibitor, full curve]"
15,O=C(Nc1ccc(-c2noc(CCc3ccccc3)n2)cc1)c1ccco1,inactive
16,COc1ccc(CCNc2c3ccccc3nc3ccccc23)cc1OC,"inconclusive: 25.1 µM [inhibitor, partial curve]"
17,CCN(CC)c1ccc(/C=C2/C(=O)ON=C2C)cc1,inactive
18,CCOc1ccccc1-n1c(SCC(N)=O)nnc1-c1ccc(O)cc1,inactive
19,O=c1nc2ccccc2c2n1CC(CN1CCN(C(c3ccccc3)c3ccccc3)CC1)N2 (configuration not stated),inactive
20,Cc1ccccc1/C=N/Nc1nc2ccccc2[nH]1,inactive
21,Cc1ccc(NC(=O)c2ccc(OCc3c(C)noc3C)cc2)cc1,inactive
22,Cc1cccc(C)c1N1CCN(S(=O)(=O)N(C)C)CC1,"inconclusive: 31.6 µM [inhibitor, single point]"
23,COC(=O)c1sccc1NC(=O)c1cc(-c2cccc(C)c2)nc2ccccc12,"inconclusive: 8.91 µM [inhibitor, single point]"
24,COc1cc(C(=O)ON=C2C=C(C)C(=O)C(C)=C2)cc(OC)c1OC,inactive

row,Compound,Potency
1,CCOC(=O)c1c(NC(=O)CSc2nnnn2-c2ccccc2)sc2c1CCC(C)C2 (configuration not stated),inactive
2,COc1ccc(NC(=O)COC(=O)c2cc(OC)c(OC)cc2NC(=O)c2ccco2)cc1OC,"inconclusive: 31.6 µM [inhibitor, partial curve]"
3,COc1cc(C(=S)N2CCOCC2)cc(OC)c1OS(=O)(=O)c1ccc(NC(C)=O)cc1,inactive
4,NC(=O)c1c(NC(=O)c2cc3ccccc3o2)sc2c1CCC2,"inconclusive: 28.2 µM [inhibitor, partial curve]"
5,O=C1CCCC2=C1C(c1ccncc1)c1c(nc(SCc3ccccc3)[nH]c1=O)N2 (configuration not stated),"inconclusive: 28.2 µM [inhibitor, partial curve]"
6,CN(C)CCCNc1nc(-c2ccccc2)c2c(c1C#N)CC(C)(C)OC2,"inconclusive: 31.6 µM [inhibitor, partial curve]"
7,O=C(c1cccc(C(F)(F)F)c1)C1CCCN(C(=O)CCn2cnnn2)C1 (configuration not stated),inactive
8,CC(C)CC(=O)Nc1ccc(F)c(Cl)c1,"inconclusive: 39.8 µM [inhibitor, single point]"
9,CCOC(=O)CNC(=O)c1sc2nc(C)cc(C)c2c1N,"inconclusive: 25.1 µM [inhibitor, partial curve]"
10,CC(C)Cc1nc2oc3c(N4CCN(CCO)CC4)ncnc3c2c2c1CCCC2,inactive
11,COc1ccc(O[C@H]2C=C[C@@H](c3ccccc3)O[C@@H]2COC(=O)CC/C(C)=N/O[C@@H](C)c2cn([C@H](CO)Cc3ccccc3)nn2)cc1,inactive
12,COc1cccc(NC(=O)Nc2nnc(N3C(C)CCCC3C)s2)c1 (configuration not stated),inactive
13,O=C(CCc1nc(-c2ccccc2)c(-c2ccccc2)o1)OCc1ccc(Br)cc1,"inconclusive: 35.5 µM [inhibitor, single point]"
14,Cc1cc(/C=C2/SC(=S)N(c3ccc([N+](=O)[O-])cc3)C2=O)c(C)n1-c1cccnc1,inactive
15,CC1(c2ccccn2)Nc2ccccc2-c2nc3ccccc3n21 (configuration not stated),"inconclusive: 17.8 µM [inhibitor, partial curve]"
16,C[C@]12CCC(=O)C=C1CC[C@@H]1C2[C@@H](O)C[C@@]2(C)[C@H]1CC[C@]2(O)C(=O)CO (some centres not stated),inactive
17,Cc1cc(=O)oc2cc(OCCSCCN3CCCC3)ccc12,"inconclusive: 31.6 µM [inhibitor, partial curve]"
18,N#Cc1c(-c2ccco2)cc(-c2ccccn2)nc1N,"inconclusive: 31.6 µM [inhibitor, partial curve]"
19,Nc1ccccc1SCc1ccccc1Cl,inactive
20,Cc1ccc(/C=C/c2nnc(-c3cccs3)o2)cc1,"inconclusive: 20 µM [inhibitor, partial curve]"
21,CCn1c(SCC(=O)NCc2ccco2)nc2ccccc2c1=O,"inconclusive: 28.2 µM [inhibitor, single point]"
22,COc1ccc(-n2cc(CNCC3CCOCC3)c(-c3cccc(F)c3)n2)cc1,"inconclusive: 35.5 µM [inhibitor, partial curve]"
23,Cc1cc(NCc2ccccn2)n2ncc(-c3ccc(Cl)cc3)c2n1,"inconclusive: 31.6 µM [inhibitor, partial curve]"
